Data from PubChem BioAssay AID488969 (Vanderbilt High Throughput Screening Facility, 2010).
Over roughly 110,000 compounds, “z-score” has its median near -0.1; the highest 2% begin near 2. Some of the results follow. The source made the active and inactive calls.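 How the source made its calls: active means z-score in the third read window above 3 or below -3; inactive means the rest.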

biological target: Metabotropic glutamate receptor 8 (Rattus norvegicus) (UniProt P70579); assay: rat mGluR8 modulators via GIRK flux, primary screen, cell-based, thallium flux, HTS (AID 488969); settings: HEK293 rat mGluR8, GIRK (G protein-gated inwardly rectifying potassium channel) thallium flux, FluoZin2; at 10 µM; stronger effect = higher value; submaximal glutamate (EC20) added with thallium
Sequence of UniProt P70579 (P70579 whole entry, looked up): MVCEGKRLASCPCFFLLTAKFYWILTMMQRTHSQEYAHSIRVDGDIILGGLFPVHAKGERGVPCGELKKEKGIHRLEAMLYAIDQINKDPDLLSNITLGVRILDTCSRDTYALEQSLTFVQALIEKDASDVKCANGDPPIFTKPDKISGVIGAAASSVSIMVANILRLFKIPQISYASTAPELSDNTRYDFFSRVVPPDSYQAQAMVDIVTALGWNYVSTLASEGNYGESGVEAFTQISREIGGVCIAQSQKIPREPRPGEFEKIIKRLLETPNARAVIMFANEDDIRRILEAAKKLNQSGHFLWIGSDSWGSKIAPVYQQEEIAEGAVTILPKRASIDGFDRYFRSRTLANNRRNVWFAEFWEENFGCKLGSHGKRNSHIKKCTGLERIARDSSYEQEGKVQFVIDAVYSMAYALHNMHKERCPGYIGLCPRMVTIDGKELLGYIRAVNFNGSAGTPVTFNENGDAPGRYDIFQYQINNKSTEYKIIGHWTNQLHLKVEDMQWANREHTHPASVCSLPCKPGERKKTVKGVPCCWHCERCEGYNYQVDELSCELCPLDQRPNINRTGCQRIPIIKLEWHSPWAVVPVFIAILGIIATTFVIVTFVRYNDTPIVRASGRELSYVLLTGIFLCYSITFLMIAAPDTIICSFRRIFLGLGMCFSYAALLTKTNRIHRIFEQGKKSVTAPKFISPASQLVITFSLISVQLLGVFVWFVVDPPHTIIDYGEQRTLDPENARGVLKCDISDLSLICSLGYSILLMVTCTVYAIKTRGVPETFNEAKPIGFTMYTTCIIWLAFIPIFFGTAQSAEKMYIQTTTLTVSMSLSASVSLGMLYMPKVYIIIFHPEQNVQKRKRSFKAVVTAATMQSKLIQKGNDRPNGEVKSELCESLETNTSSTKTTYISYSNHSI

Structure (SMILES)	z-score
CSc1cccc(NC(=O)c2ccccc2N(C)S(C)(=O)=O)c1	-0.197
O=C(NNC(=O)c1ccc([N+](=O)[O-])cc1Cl)c1ccncc1	-0.103
CCOc1ccc2c(c1)n(CO)c(=S)n2CO	0.0706
O=C(Nc1nnc(CCc2ccccc2)s1)C1CCCO1 (stereo unspecified)	-0.359
O=c1c2ccccc2sn1-c1ccc(S(=O)(=O)N2CCCCC2)cc1	-0.181
Cc1ccc(-c2nnn(CC(=O)NCC3CC3)n2)o1	-0.0955
Cc1ccccc1CS(=O)(=O)Cc1ccc(C(=O)NCc2ccco2)o1	1.15
COCCN(CCOC)C(=O)CC(=O)N(CCOC)CCOC	0.0459
CCOC(=O)Cc1cc(=O)n2[nH]c(C)c(C#N)c2n1	-0.0107
O=C1c2ccccc2C(=O)N1C/C=C/CN1C(=O)c2ccccc2C1=O	0.0454
Cc1c(CN(C)CCc2ccccc2)c(=O)n(-c2ccccc2)n1C	-0.04
Cc1ccc(-c2cc(C(=O)NCc3cnn(C)c3)c3cc(Br)ccc3n2)cc1	-0.27
O=C(Nc1ccc2c(c1)ncn2-c1ccccc1)c1ccco1	-0.0773
COc1ccc(NC(=S)Nc2ccc3nccnc3c2)cc1	-0.171
Cc1nc2[nH]c(=O)c3c(n2n1)NC1=C(C(=O)CC(C)(C)C1)C3c1ccc(F)cc1 (stereo unspecified)	-2.1
Cc1ccc(NC(=O)CSc2ccccc2NC(=O)c2cccc(Cl)c2)cc1Cl	0.0757
CCOCC(=O)Nc1sc2c(c1C(=O)OCC)CCCC2	-0.324
O=C(COC(=O)c1ccc(S(=O)(=O)NCc2ccco2)cc1)Nc1ccc(OC(F)F)cc1	0.342
Cc1ccc(S(=O)(=O)N/N=C/c2cc(Br)c(C)o2)cc1	-0.0995
O=C1CC(c2ccccc2)CC(O)=C1C=NCc1ccccc1Cl (stereo unspecified)	-0.251
CCCCN(C(=O)c1ccco1)c1nnc(-c2cc(OC)c(OC)c(OC)c2)s1	-0.288
O=C(O)CCCc1nc(-c2ccccc2)no1	-0.525
CCS(=O)(=O)N1CCC(C(=O)N2CCOCC2)CC1	0.318

Structure (SMILES)	z-score
Cc1cc(C)c(C#N)c(SCC(=O)c2ccc(Cl)cc2Cl)n1	1.51
Cn1c(CCNC(=O)c2ccccc2)nc2ccccc21	-0.296
CC(=O)c1cc2c(cc1NC(=O)CN1CCN(c3cccc(C(F)(F)F)c3)CC1)OCO2	0.184
CC(/C=N/NC(=O)Cc1cc(=O)[nH][nH]1)=C\c1ccccc1	0.0693
CC1=Nc2ccc(C)cc2N(Cc2ccccc2)C(=O)C1	-0.355
CCOc1cc(/C=C/c2nc3cc(C)c(C)cc3s2)ccc1OCC(=O)N1CCOCC1	-0.0595
O=C(CC1SC(N2CCCCC2)=NC1=O)Nc1cccc(C(F)(F)F)c1 (stereo unspecified)	0.147
[O-][N+]12CCN(CC1)c1ccccc12	0.065
Cc1cc(NC(=S)NC(=O)C2CC2)ccc1Br	0.599
C=CCn1c(=O)c2ccccc2n2c(SCC(=O)c3ccccc3)nnc12	-0.739
C=CCN1C(=O)CS/C1=N\S(=O)(=O)c1ccc(Cl)cc1	-0.277
Nc1nc(-c2cccnc2)nn1C(=O)CCc1ccccc1	-0.218
O=C(O)c1ccc(N2C(=O)C3ON(c4ccccc4)C(c4ccccc4F)C3C2=O)cc1 (stereo unspecified)	0.0668
Cc1cc(C)c(-c2noc(C(=O)OC(C)(C)C)c2C(=O)OC(C)(C)C)c(C)c1	-0.139
COc1cc(CN2C(=O)C(NC(=O)c3ccco3)(C(F)(F)F)C3=C2CC(C)(C)CC3=O)cc(OC)c1 (stereo unspecified)	-0.316
CSc1nnnn1-c1cccc(O)c1	0.00114
CC(Oc1ccc(C(=O)NCCc2ccccc2)cc1)C(=O)O (stereo unspecified)	-0.223
CCOC(=O)Nc1nnc(-c2ccccc2OC)s1	-0.566
Cc1cccc(-c2noc(CCC(=O)NCC3CCCO3)n2)c1 (stereo unspecified)	0.0809
Cc1ccc(C)c(NC(=O)CN(C)C(=O)COc2ncnc3sccc23)c1	-0.0428
COc1cccc2[nH]c3c(N4CCCCC4)ncnc3c12	0.763
CCC1(CC)Cc2ccccc2C(N)=C1C#N	-0.919
CCN(CC)C(=S)SCC(=O)Nc1ccc(F)cc1	-0.211

Structure (SMILES)	z-score
Cc1ccccc1C(=O)Nc1ccccc1Sc1ccccc1	-0.151
N#CCc1c(C#N)c(N)nc(N2CCN(c3ccc(F)cc3)CC2)c1C#N	-0.789
CC(C)(C)c1ccc(CSc2nnc(-c3ccccc3NC(=O)c3ccccc3)o2)cc1	-0.0927
Cc1nc(SC2CCOC2=O)c2c(C)c(C)sc2n1 (stereo unspecified)	active: 4.12
COc1cccc(C(=O)CN(C(=O)c2ccc(Cl)cc2Cl)N2C(=O)c3ccccc3C2=O)c1	-0.0496
COc1ccc(-c2cc(=O)n(-c3nc4ccccc4[nH]3)[nH]2)cc1	0.773
CCOC(=O)N1CCN(S(=O)(=O)c2ccc(OCC)c3ccccc23)CC1	-0.816
Cc1ccc(NC2=C(C(=O)c3ccccc3)N(C)S(=O)(=O)c3ccccc32)cc1	-0.266
C/C(Cl)=C\Cn1c(Nc2cccc(C)c2)nc2c1c(=O)n(C)c(=O)n2C	-1.56
CCCCC1CCC(C(=O)Nc2c(C)n(C)n(-c3ccccc3)c2=O)CC1 (stereo unspecified)	0.437
COCC(C)NC(=O)c1ccc(-n2nc(C(F)(F)F)cc2-c2cccs2)cc1 (stereo unspecified)	-0.186
Cc1nc(NCc2ccco2)nc2c1C(=O)CC(C)C2 (stereo unspecified)	-0.121
COc1cccc(OC)c1C(=O)NC(C)C12CC3CC(CC(C3)C1)C2 (stereo unspecified)	-0.239
CCOc1cc(C2C3=C(CCCC3=O)Nc3nc(C(=O)OC)nn32)ccc1OC (stereo unspecified)	0.0283
CCCC(=O)N=C1SC2CS(=O)(=O)CC2N1c1ccc(-c2nc3ccc(C)cc3s2)cc1 (stereo unspecified)	-0.238
CCn1nnnc1SCC(=O)Nc1cc(C)on1	-0.103
CCOC(=O)CNC(=O)CSc1ncnc2c1cnn2-c1ccccc1	-0.0413
CCN(CC)C(=O)CSC1=Nc2ccccc2C2=NC(c3ccccc3)C(=O)N12 (stereo unspecified)	-0.599
Cc1cc(C)cc(NC(=O)Nc2ccc3c(c2)N(C)C(=O)CS3)c1	0.371
CCN(C(=O)CSc1nncn1-c1ccccc1)c1c(N)n(Cc2ccccc2)c(=O)[nH]c1=O	-0.271
Cc1c(CNC2CCCC(C)C2C)c(C(=O)O)c(C)n1Cc1ccccc1 (stereo unspecified)	-0.415
C=CCn1cc(/C=N/Nc2nc3ccccc3[nH]2)c2ccccc21	-0.32
CC(=O)Nc1ccc(NC(=O)C2CC(=O)N=C(N)S2)cc1 (stereo unspecified)	-0.158

Structure (SMILES)	z-score
COc1cc(Br)cc2cc(C(=O)NCC3CCCO3)c(=O)oc12 (stereo unspecified)	-0.0701
O=C(CC1NC(=O)NC1=O)Nc1ccc(Cl)cc1 (stereo unspecified)	0.084
CCC(C)(C)n1nnnc1C(c1cc2cc(C)ccc2[nH]c1=O)N1CCCC1 (stereo unspecified)	-0.462
CCCCCCSc1nc(O)c(C2OC(=O)c3c2ccc(OC)c3OC)c(=O)n1-c1ccccc1 (stereo unspecified)	-1.44
CC(=O)NCCC(=O)Nc1cc(F)ccc1C	-0.222
O=c1[nH]c(CN2CCN(S(=O)(=O)c3ccccc3C(F)(F)F)CC2)nc2sc3c(c12)CCCC3	-0.148
Cc1cc(NS(=O)(=O)c2ccc(NC(=O)NC(C)(C(F)(F)F)C(F)(F)F)cc2)no1	0.394
Cc1cccc(NC(=O)CN2C(=O)CNC2=O)c1	-0.642
Cc1nonc1C(=O)N/N=C/c1ccc(O)cc1	-0.0268
Cc1cc(N/N=C\c2ccccc2)nc(-c2ccccc2O)n1	0.987
O=c1oc(-c2ccccc2NS(=O)(=O)c2ccc3ccccc3c2)nc2ccccc12	-0.224
COCC(C)n1c(SCC(=O)NNC(=O)c2ccc(F)cc2)nc2ccccc2c1=O (stereo unspecified)	0.283
Cc1ccccc1C(OCCN(C)C)C1CCCCC1 (stereo unspecified)	1.18
COc1cc(OC)c(C(=O)Nc2ccccc2-c2ccccc2)cc1OC	-0.424
COc1ccc(CNC(=O)C(c2ccco2)N(Cc2cccs2)C(=O)Cc2cccs2)cc1 (stereo unspecified)	-0.0856
COc1ccc(CN2CCN(S(=O)(=O)c3ccc(F)cc3)CC2)cc1OC	-0.197
CCCC(CCC)C(=O)Nc1ccncc1	0.135
Cc1nn(-c2ccccc2)c(N2CCCC2)c1/C=C1\N=C(c2ccc(OC(C)C)cc2)OC1=O	-0.0298
CSc1ccc(NC(=O)N2CCN(c3nc4ccccc4s3)CC2)cc1	-0.123
CCn1c(SCC(=O)N2CCc3ccccc32)nnc1-c1ccncc1	0.678
O=C1CC(Cc2ccccc2)C(=O)N1CCCn1ccnc1 (stereo unspecified)	0.16
Cc1cc(NCCN2CCCCC2)n2c(nc3ccccc32)c1C#N	-0.518
CCCc1cc(C(=O)Nc2sc(C(C)=O)c(C)c2C(=O)OCC)no1	-1.71

Structure (SMILES)	z-score
Cc1cc(C)n2nc(-c3ccc(F)cc3)nc2n1	-0.0637
Cc1ccc(N2C(N)=C(C#N)C(c3ccsc3)C3=C2CC(C)(C)CC3=O)cc1 (stereo unspecified)	-1.49
O=C(N/N=C/c1ccc(O)cc1O)/C(=C/c1ccccc1)CCO	-0.185
NC(=O)C1CCN(C(c2ccccc2F)c2nnnn2Cc2ccco2)CC1 (stereo unspecified)	-0.176
Cc1nc2ccc(Cl)cc2c(-c2ccccc2)c1CC(=O)O	-0.401
CC(C)CN1CN(S(=O)(=O)c2cccs2)c2nc3ccccc3nc21	-0.233
CC1(C)C(=O)OC(c2cc(Br)ccc2O)C(C)(C)C1=O (stereo unspecified)	-0.0999
CCOC(=O)c1cc(-c2ccccc2)sc1NC(=O)C(C)Sc1nnc(C)s1 (stereo unspecified)	-0.22
COc1ccc(NC(=O)C(=O)NNC(=O)c2cccs2)cc1	active: 7.11
Cn1cc([N+](=O)[O-])c(C(=O)Nc2ccn(C34CC5CC(CC(C5)C3)C4)n2)n1	-0.12
ONC(=Nc1ccccc1)c1ccc(Cl)cc1	-0.273
O=C(NCc1ccc2c(c1)OCO2)c1c(O)c2cccc3c2n(c1=O)CCC3	-0.541
CC(=O)CSc1ncnc2c1oc1ccccc12	-0.216
Cc1ccccc1OCC(=O)N/N=C1\CCOc2c(C)cccc21	0.419
Cc1ccc(N(Cc2cc3ccccc3[nH]c2=O)C(=O)c2ccco2)c(C)c1	-1.7
CCOc1c2ccc(C(=O)NCc3ccc4c(c3)OCO4)cc2nn1CC	-0.189
CCCCOc1ccc(C(=O)N/C(=C/C=C/c2ccccc2)C(=O)NCCCO)cc1	0.0598
COc1ccc(OC)c(C(=O)c2ccc(C(=O)O)cc2)c1	-0.533
CNC(=O)CSc1nnc(-c2cccs2)o1	-0.159
